Results reported in publication PMC4599859.
Substitutions are numbered along the chain they refer to. Results are given in words; binding and its absence hold for the method and conditions named. For some of these results: Binding seen in cells or lysates may run through a third protein. Some entries that bind do so weakly or less than the wild type. Where a sequence is shown, tags or fusion partners need not be part of it. Values belong to the binder of their own block, whether it stands above or below them.

What was measured:
[1] = biological target: T1, cLuc-IBR5 (Arabidopsis thaliana) (UniProt Q84JU4); experiment: split reporter; firefly luciferase complementation imaging (LCI) in N. benthamiana leaves; HSP90 or SGT1b on nLuc, IBR5 on cLuc
T1 sequence: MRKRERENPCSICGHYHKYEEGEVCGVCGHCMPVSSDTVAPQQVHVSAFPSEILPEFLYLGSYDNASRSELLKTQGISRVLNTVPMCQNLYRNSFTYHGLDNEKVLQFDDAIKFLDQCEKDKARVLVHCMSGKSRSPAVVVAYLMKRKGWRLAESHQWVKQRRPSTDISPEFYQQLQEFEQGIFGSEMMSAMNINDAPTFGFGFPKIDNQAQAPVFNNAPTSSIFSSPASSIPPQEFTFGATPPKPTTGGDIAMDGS

[2] = biological target: T2, IBR5-Myc (Super:IBR5-Myc) in transgenic Arabidopsis plants (Arabidopsis thaliana) (UniProt Q84JU4); experiment: co-IP; total protein of transgenic Arabidopsis plants expressing Super:IBR5-Myc (with or without Super:SGT1b-Flag); anti-Myc immunoprecipitation; blot with anti-HSP90 or anti-Flag
T2 sequence: T1 sequence

[3] = biological target: T3, IBR5 (Indole-3-Butyric Acid Response 5) fused with the pGBKT7 vector (Arabidopsis thaliana) (UniProt Q84JU4); experiment: two-hybrid; IBR5 or IBR5^C129S in pGBKT7 (bait), R protein domains in pGADT7 (prey); yeast AH109; interaction tested on SD-Trp-Leu-His-Ade medium
T3 sequence: T1 sequence

[4] = biological target: T4, IBR5^C129S fused with the pGBKT7 vector (Arabidopsis thaliana) (UniProt Q84JU4); experiment: as above
T4 sequence: T1 sequence with C129S

[5] = biological target: T5, full-length RPS4-Myc (Super:RPS4-Myc) (Arabidopsis thaliana) (UniProt Q9XGM3); experiment: co-IP; two constructs co-expressed in N. benthamiana leaves; extract in 150 mM NaCl, 10 mM Tris-HCl pH 7.6, 2 mM EDTA, 0.5% NP-40; anti-Myc beads, 4°C, 2 h; blot with anti-HA or anti-Flag
T5 sequence: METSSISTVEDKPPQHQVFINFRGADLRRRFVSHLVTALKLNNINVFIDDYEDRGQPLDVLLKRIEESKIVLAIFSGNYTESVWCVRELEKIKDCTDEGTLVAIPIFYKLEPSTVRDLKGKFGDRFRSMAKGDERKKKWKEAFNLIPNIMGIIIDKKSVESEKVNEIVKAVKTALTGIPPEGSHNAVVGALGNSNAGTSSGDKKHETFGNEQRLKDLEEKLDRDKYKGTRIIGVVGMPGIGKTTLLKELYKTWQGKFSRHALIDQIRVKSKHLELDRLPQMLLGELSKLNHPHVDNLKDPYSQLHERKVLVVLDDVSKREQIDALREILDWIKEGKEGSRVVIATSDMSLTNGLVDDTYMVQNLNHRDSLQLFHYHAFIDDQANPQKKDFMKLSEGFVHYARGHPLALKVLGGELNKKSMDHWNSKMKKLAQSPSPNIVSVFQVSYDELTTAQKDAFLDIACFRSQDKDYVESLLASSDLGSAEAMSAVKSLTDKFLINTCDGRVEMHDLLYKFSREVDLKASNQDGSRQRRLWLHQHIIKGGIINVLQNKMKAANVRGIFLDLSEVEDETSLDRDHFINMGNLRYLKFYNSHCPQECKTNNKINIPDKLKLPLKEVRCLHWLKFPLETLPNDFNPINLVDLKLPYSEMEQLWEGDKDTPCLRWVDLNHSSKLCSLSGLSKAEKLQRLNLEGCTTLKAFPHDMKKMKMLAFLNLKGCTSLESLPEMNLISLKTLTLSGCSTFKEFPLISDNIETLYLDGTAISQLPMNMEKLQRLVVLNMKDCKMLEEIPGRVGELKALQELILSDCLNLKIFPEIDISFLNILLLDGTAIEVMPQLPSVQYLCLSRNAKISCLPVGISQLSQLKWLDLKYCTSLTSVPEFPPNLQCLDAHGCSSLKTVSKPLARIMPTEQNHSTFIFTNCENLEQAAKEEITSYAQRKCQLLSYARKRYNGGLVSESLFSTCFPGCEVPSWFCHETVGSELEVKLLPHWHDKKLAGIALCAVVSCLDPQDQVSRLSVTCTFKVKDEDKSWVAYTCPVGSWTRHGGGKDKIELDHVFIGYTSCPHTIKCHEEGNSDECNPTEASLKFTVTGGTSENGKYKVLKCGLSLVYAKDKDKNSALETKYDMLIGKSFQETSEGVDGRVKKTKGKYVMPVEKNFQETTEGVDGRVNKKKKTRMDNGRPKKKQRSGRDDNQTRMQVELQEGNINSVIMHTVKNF

[6] = biological target: T6, full-length RPM1-Myc (Super:RPM1-Myc) (Arabidopsis thaliana) (UniProt Q39214); experiment: as above
T6 sequence: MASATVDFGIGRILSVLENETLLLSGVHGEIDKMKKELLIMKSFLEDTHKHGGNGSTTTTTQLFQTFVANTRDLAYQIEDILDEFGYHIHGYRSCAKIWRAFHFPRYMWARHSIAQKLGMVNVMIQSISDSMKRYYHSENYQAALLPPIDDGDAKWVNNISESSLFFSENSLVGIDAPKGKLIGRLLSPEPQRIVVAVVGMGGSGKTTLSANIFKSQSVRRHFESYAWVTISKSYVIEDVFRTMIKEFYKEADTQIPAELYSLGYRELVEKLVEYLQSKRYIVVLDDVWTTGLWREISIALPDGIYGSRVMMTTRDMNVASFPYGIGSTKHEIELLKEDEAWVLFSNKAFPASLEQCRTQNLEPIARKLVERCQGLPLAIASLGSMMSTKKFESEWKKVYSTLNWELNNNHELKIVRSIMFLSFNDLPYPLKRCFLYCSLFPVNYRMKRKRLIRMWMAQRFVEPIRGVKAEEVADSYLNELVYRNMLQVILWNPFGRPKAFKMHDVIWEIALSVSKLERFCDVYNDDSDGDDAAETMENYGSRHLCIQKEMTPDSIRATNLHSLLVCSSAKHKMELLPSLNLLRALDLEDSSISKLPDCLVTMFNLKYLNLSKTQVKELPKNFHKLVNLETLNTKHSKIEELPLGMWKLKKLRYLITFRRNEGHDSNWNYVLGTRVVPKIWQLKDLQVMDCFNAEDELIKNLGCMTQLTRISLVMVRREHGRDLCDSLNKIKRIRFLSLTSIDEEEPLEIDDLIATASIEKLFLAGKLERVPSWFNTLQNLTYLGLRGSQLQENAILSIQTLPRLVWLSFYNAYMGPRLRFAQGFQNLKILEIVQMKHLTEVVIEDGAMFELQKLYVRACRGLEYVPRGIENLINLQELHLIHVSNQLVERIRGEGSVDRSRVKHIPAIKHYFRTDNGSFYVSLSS

binding [3]: no binding
B3: TIR domain of RPP4 (yeast two-hybrid prey) (domain or fragment, UniProt F4JNA9 11-175)
chain: RRYDVFPSFSGVDVRKTFLSHLIEALDRRSINTFMDHGIVRSCIIADALITAIREARISIVIFSENYASSTWCLNELVEIHKCYKKGEQMVIPVFYGVDPSHVRKQIGGFGDVFKKTCEDKPEDQKQRWVKALTDISNLAGEDLRNGPTEAFMVKKIANDVSNKL

binding [4]: no binding | binding [3]: no binding
B4: TIR domain of RPS4 fused with the pGADT7 vector (domain or fragment, UniProt Q9XGM3 14-175)
chain: PQHQVFINFRGADLRRRFVSHLVTALKLNNINVFIDDYEDRGQPLDVLLKRIEESKIVLAIFSGNYTESVWCVRELEKIKDCTDEGTLVAIPIFYKLEPSTVRDLKGKFGDRFRSMAKGDERKKKWKEAFNLIPNIMGIIIDKKSVESEKVNEIVKAVKTAL

binding [3]: binds
B5: TIR domain of SNC1 (yeast two-hybrid prey) (domain or fragment, UniProt O23530 19-182)
chain: RRYDVFPSFRGEDVRDSFLSHLLKELRGKAITFIDDEIERSRSIGPELLSAIKESRIAIVIFSKNYASSTWCLNELVEIHKCYTNLNQMVIPIFFHVDASEVKKQTGEFGKVFEETCKAKSEDEKQSWKQALAAVAVMAGYDLRKWPSEAAMIEELAEDVLRKT

binding [4]: binds | binding [3]: binds
B7: TIR domain of CHS3 (aa 1-138) fused with the pGADT7 vector (domain or fragment, UniProt Q9FKN7 1-138)
chain: MEPPAARVTPSIKADCSHSVNIICEETVLHSLVSHLSAALRREGISVFVDACGLQETKFFSIKQNQPLTDGARVLVVVISDEVEFYDPWFPKFLKVIQGWQNNGHVVVPVFYGVDSLTRVYGWANSWLEAEKLTSHQS

Continued, binder first:

B1: SGT1b-nLuc (protein, UniProt Q9SUT5 1-358)
chain: MAKELAEKAKEAFLDDDFDVAVDLYSKAIDLDPNCAAFFADRAQANIKIDNFTEAVVDANKAIELEPTLAKAYLRKGTACMKLEEYSTAKAALEKGASVAPNEPKFKKMIDECDLRIAEEEKDLVQPMPPSLPSSSTTPLATEADAPPVPIPAAPAKPMFRHEFYQKPEEAVVTIFAKKVPKENVTVEFGEQILSVVIDVAGEEAYHLQPRLFGKIIPEKCRFEVLSTKVEIRLAKAEIITWASLEYGKGQSVLPKPNVSSALSQRPVYPSSKPAKDWDKLEAEVKKQEKDEKLDGDAAMNKFFSDIYSSADEDMRRAMNKSFAESNGTVLSTNWKEVGTKKVESTPPDGMELKKWEY
binding [1]: binds

B2: SGT1b-Flag (Super:SGT1b-Flag) in Arabidopsis (protein, UniProt Q9SUT5 1-358)
chain: B1 chain
binding [2]: binds

B6: HA-Flag-IBR5 (35S:HF-IBR5) in N. benthamiana leaves (protein, UniProt Q84JU4 1-257)
chain: T1 sequence
binding [5]: binds | binding [6]: no binding
